Measurements from publication PMC9021288 (Nature Communications, 2022).
Entries with a single value are a further part of the results.

Test: 7-day Maximum Tolerated Dose 1 (MTD1) rat study
Type: in vivo, Wistar Han rats
Set-up: unit not given here
Details: MTD1 60 mg/kg/day, Females, Day 1 then Day 7
From the text: See the summary of the study design in Supplementary Table 31. Nine-week-old Wistar (Crl:WI (Han)) rats were obtained from Charles River Laboratories (Domaine des Oncins, Saint-Germain-Nuelles, France). […] Animals were examined daily for any altered clinical signs, body weights, and food consumption. Blood samples were taken at different timepoints after the test item administration, and toxicokinetic exposure assessed under the defined experimental conditions and analyzed using Phoenix (version 6.4 and 1.4) (Supplementary Table 32). Measurements included hematology and clinical chemistry measurements. Animals were euthanized and necropsied at the end of the dosing period. At necropsy, major organ systems and tissues were collected and weighed and then examined for gross lesions as well as for microscopic changes.

C[C@@H](CNC(=O)[C@H](O)C(C)(C)CO)NC(=O)c1cc(F)c(F)cc1F [MMV693183]
Cmax (Day 1): 73.1 | Cmax (Day 7): 59.5
